Some entries share one result that the patent states for a list of compounds.
Target: T1, α7 nAChR (Homo sapiens, UniProt P36544)
T1 construct: human IMR-32 cells with native expression of α7 nAChR; endogenous in cells; host or cells: IMR-32 (human neuroblastoma)
Assay: cell-based real-time kinetic FLIPR Ca2+ assay, potentiation of agonist response (fold PAM activity)
Settings: 1 μM test compound; human IMR-32 cells with native α7 nAChR; agonist PNU-282987, 10 μM; fold increase over agonist-alone effect

T1 sequence (P36544 23-502): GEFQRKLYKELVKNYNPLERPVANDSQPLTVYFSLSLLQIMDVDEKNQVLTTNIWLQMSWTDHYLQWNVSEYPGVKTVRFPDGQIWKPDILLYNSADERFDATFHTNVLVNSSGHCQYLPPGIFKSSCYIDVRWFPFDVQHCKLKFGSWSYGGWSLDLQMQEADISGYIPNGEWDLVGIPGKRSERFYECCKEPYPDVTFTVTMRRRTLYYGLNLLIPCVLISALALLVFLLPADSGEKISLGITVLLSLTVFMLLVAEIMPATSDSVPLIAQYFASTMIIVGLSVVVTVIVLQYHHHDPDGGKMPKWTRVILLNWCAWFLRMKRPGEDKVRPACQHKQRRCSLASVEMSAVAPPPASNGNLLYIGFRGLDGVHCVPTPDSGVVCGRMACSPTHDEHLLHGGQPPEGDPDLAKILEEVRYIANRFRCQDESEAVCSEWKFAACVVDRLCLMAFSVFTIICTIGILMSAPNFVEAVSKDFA

SMILES | Fold activation at 1 μM conc. (Group)
Cc1cc(-c2sc(C(=O)N3CC4CC4C3)nc2-c2ccc(Cl)cc2)ccc1S(N)(=O)=O (stereo not shown) [Compound 94, 4-(2-(3-azabicyclo[3.1.0]hexane-3-carbonyl)-4-(4-chlorophenyl)thiazol-5-yl)-2-methylbenzenesulfonamide] | C (the compounds with activity above 15 folds are grouped as C)
CC(=O)NS(=O)(=O)c1ccc(-c2sc(C(=O)N3CC4CC4C3)nc2-c2ccc(Cl)cc2)cc1 (stereo not shown) [Compound 95, N-((4-(2-(3-azabicyclo[3.1.0]hexane-3-carbonyl)-4-(4-chlorophenyl)thiazol-5-yl)phenyl)sulfonyl)acetamide] | A (compounds with activity between 1 to 5 folds are grouped as A)
NS(=O)(=O)c1ccc(-c2sc(C(=O)N3CC4CC4C3)nc2-c2ccc(Cl)cc2)cc1C(F)(F)F (stereo not shown) [Compound 96, 4-(2-(3-azabicyclo[3.1.0]hexane-3-carbonyl)-4-(4-chlorophenyl)thiazol-5-yl)-2-(trifluoromethyl)benzenesulfonamide] | A (compounds with activity between 1 to 5 folds are grouped as A)
Cc1cc(S(N)(=O)=O)ccc1-c1sc(C(=O)N2CC3CC3C2)nc1-c1ccc(Cl)cc1 (stereo not shown) [Compound 97, 4-(2-(3-azabicyclo[3.1.0]hexane-3-carbonyl)-4-(4-chlorophenyl)thiazol-5-yl)-3-methylbenzenesulfonamide] | C (the compounds with activity above 15 folds are grouped as C)
NS(=O)(=O)c1ccc(-c2sc(C(=O)N3CC4CC4C3)nc2-c2ccc(Cl)cc2)c(F)c1 (stereo not shown) [Compound 98, 4-(2-(3-azabicyclo[3.1.0]hexane-3-carbonyl)-4-(4-chlorophenyl)thiazol-5-yl)-3-fluorobenzenesulfonamide] | C (the compounds with activity above 15 folds are grouped as C)
NS(=O)(=O)c1ccc(-c2sc(C(=O)N3CC4CC4C3)nc2-c2ccc(Cl)cc2)cc1F (stereo not shown) [Compound 99, 4-(2-(3-azabicyclo[3.1.0]hexane-3-carbonyl)-4-(4-chlorophenyl)thiazol-5-yl)-2-fluorobenzenesulfonamide] | C (the compounds with activity above 15 folds are grouped as C)
NS(=O)(=O)c1ccc(-c2sc(C(=O)N3CC4CC4C3)nc2-c2ccc(Cl)cc2)c2c1CCCC2 (stereo not shown) [Compound 100, 4-(2-(3-azabicyclo[3.1.0]hexane-3-carbonyl)-4-(4-chlorophenyl)thiazol-5-yl)-5,6,7,8-tetrahydronaphthalene-1-sulfonamide] | A (compounds with activity between 1 to 5 folds are grouped as A)
Cc1cc(-c2nc(C(=O)N3CC4CC4C3)sc2-c2ccc(S(N)(=O)=O)c(F)c2)ccc1Cl (stereo not shown) [Compound 101, 4-(2-(3-azabicyclo[3.1.0]hexane-3-carbonyl)-4-(4-chloro-3-methylphenyl)thiazol-5-yl)-2-fluorobenzenesulfonamide] | C (the compounds with activity above 15 folds are grouped as C)
NS(=O)(=O)c1ccc(-c2sc(CN3CC4CC4C3)nc2-c2ccc(Cl)cc2)cc1 (stereo not shown) [Compound 102, 4-(2-(3-azabicyclo[3.1.0]hexan-3-ylmethyl)-4-(4-chlorophenyl)thiazol-5-yl)benzenesulfonamide] | A (compounds with activity between 1 to 5 folds are grouped as A)
NS(=O)(=O)c1ccc(-c2sc(CN3CCCC3=O)nc2-c2ccc(Cl)cc2)cc1 [Compound 103, 4-(4-(4-chlorophenyl)-2-((2-oxopyrrolidin-1-yl)methyl)thiazol-5-yl)benzenesulfonamide] | B (the compounds with activity between 5.1 folds and 15 folds are grouped as B)
NS(=O)(=O)c1ccc(-c2sc(CN3CCCC3=O)nc2-c2ccc(Cl)cc2)c(F)c1 [Compound 104, 4-(4-(4-chlorophenyl)-2-((2-oxopyrrolidin-1-yl)methyl)thiazol-5-yl)-3-fluorobenzenesulfonamide] | C (the compounds with activity above 15 folds are grouped as C)
NS(=O)(=O)c1ccc(-c2sc(CN3CCCCC3=O)nc2-c2ccc(Cl)cc2)cc1 [Compound 105, 4-(4-(4-chlorophenyl)-2-((2-oxopiperidin-1-yl)methyl)thiazol-5-yl)benzenesulfonamide] | B (the compounds with activity between 5.1 folds and 15 folds are grouped as B)
NS(=O)(=O)c1ccc(-c2sc(N3CCC(c4ccccc4)CC3)nc2-c2ccc(Cl)cc2)cc1 [Compound 106, 4-(4-(4-chlorophenyl)-2-(4-phenylpiperidin-1-yl)thiazol-5-yl)benzenesulfonamide] | B (the compounds with activity between 5.1 folds and 15 folds are grouped as B)

Source: patent US9388196B2, “Thiazole derivatives as alpha 7 nAChR modulators” (Lupin Limited, priority 2012, dated 2016)
